# Measured values reported in PubChem BioAssay (Tox21).
# Values joined by “and” are separate entries in the source; they are usually repeats but may differ in a detail not shown here. Identical values can stand only once. Inconclusive results, whose numbers are uncertain, are shown with a selection of clear calls. For some of these results: Potencies beside an inconclusive call are fits to weak or partial responses and may not hold up. Active and inactive are the calls of the source. Unless noted, calls come from the whole dose curve; as a rule, active = well fitted curve in the direction sought with a large enough effect in the repeat runs; inconclusive = weak or mixed curves; inactive = no such curve, though single readings can be large; an effect the other way counts as inactive or inconclusive.
# Tests used:
# [1] = qHTS assay for small molecule agonists of the p53 signaling pathway (AID 651631; calls by dose curve; note: nearly all actives have a fitted effect of over 15% in size); settings: HCT-116 p53RE-bla reporter, beta-lactamase FRET ratio, 16 h; activation: at 73.3 µM (top of the series) unless noted
# Procedure, shortened: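 Readout was fluorescence from the LiveBLAzer FRET substrate, applied for 2 h at room temperature after 16 h compound exposure at 37 °C. Cells were the p53RE-bla HCT-116 line, with beta-lactamase driven by p53 response elements.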
# [2] = qHTS assay for small molecule disruptors of the mitochondrial membrane potential (AID 720635); settings: HepG2 mitochondrial membrane potential, Mito-MPS dye ratio; ratio activity, negative = MMP loss: at 83.2 µM (top of the series) unless noted; for ratio activity, negative = MMP loss: % is set by controls: 0 for no effect and ±100 for the full control effect
# Procedure, shortened: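 HepG2 cells (2,000/well) attached overnight at 37C, then took compound for 1 hr at 37C, 5% CO2. Mito-MPS dye was added for 30 min; fluorescence was read at 490/535 nm (monomers) and 540/590 nm (aggregates).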
# [3] = molecular target: Glucocorticoid receptor (Homo sapiens) (UniProt P04150); assay: qHTS assay to identify small molecule antagonists of the glucocorticoid receptor (GR) signaling pathway (AID 720692; active = well fitted inhibition curve with a large enough effect in the signal ratio in the repeat runs, not every such curve was filed as active; inconclusive = weak or mixed curves, or effect the other way; inactive = no such curve, though single readings can be large or run the other way; the % refers to the signal ratio); settings: GR-bla HeLa, beta-lactamase FRET ratio, dexamethasone-stimulated, 18 h; activity change, negative = inhibition: at 58.5 µM (top of the series) unless noted
# Sequence of UniProt P04150 (P04150 whole entry, looked up): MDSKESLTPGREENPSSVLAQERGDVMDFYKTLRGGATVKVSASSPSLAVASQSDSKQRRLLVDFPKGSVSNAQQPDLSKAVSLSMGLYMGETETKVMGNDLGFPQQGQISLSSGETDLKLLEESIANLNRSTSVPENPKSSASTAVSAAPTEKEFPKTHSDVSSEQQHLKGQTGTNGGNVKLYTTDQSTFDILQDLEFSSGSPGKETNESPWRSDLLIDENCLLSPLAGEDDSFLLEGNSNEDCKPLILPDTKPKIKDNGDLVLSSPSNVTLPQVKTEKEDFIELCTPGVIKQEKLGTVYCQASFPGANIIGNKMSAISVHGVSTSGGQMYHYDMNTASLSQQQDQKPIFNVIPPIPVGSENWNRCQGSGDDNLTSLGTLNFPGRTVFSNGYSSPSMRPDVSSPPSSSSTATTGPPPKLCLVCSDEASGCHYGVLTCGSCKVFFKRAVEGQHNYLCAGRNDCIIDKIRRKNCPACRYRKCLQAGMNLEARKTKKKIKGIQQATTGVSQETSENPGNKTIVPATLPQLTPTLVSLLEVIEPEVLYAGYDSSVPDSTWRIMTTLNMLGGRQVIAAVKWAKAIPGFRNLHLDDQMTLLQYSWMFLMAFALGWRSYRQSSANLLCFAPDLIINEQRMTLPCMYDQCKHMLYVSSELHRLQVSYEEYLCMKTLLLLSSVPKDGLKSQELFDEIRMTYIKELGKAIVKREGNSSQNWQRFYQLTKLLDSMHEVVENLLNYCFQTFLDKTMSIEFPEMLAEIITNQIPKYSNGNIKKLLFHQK
# Procedure, shortened: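 Quantitative HTS in antagonist format: HeLa cells expressing endogenous GR and a stably integrated GRE-bla reporter, stimulated with 5 nM dexamethasone (final) alongside test compounds for 18 h.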
# [4] = qHTS assay to identify small molecule antagonists of the glucocorticoid receptor (GR) signaling pathway - cell viability counter screen (AID 720693); settings: GR-bla HeLa viability, CellTiter-Glo luminescence, 18 h, with 5 nM dexamethasone present; viability change, negative = cytotoxic: at 58.5 µM (top of the series); note: nearly all actives have a fitted effect of over 55% in size
# [5] = qHTS assay for identifying genotoxic compounds that show differential cytotoxicity against isogenic chicken DT40 cell lines with known DNA damage response pathways - Rev3 mutant cell line (AID 743014); settings: chicken DT40 Rev3-/- viability, CellTiter-Glo, 40 h; activity, negative = cytotoxicity: at 68.4 µM (top of the series) unless noted; note: nearly all actives have a fitted effect of over 55% in size
# [6] = qHTS assay to identify small molecule antagonists of the androgen receptor (AR) signaling pathway using the MDA cell line - cell viability counter screen (AID 743041; note: nearly all actives have a fitted effect of over 45% in size); settings: MDA-kb2 viability, CellTiter-Fluor, 16 h, cells co-treated with R1881 androgen agonist; viability change, negative = cytotoxic: at 70.3 µM (top of the series)
# Procedure, shortened: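 qHTS viability read-out; MDA-kb2 AR-luc; R1881-stimulated; 16 h exposure at 37C, 0% CO2; CellTiter-Fluor, 30 min; fluorescence intensity.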
# [7] = qHTS assay to identify small molecule antagonists of the estrogen receptor alpha (ER-alpha) signaling pathway using the BG1 cell line (AID 743080; calls by dose curve;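 note: BG1 cells stimulated with 17beta-estradiol alongside compound; nearly all actives have a fitted effect of over 25% in size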); settings: BG1Luc4E2 ERE-luciferase antagonist mode, luminescence; activity change, negative = inhibition: at 70.3 µM (top of the series) unless noted
# Procedure, shortened: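 BG1Luc4E2, endogenous ER-alpha, 4xERE-luc; 5 d charcoal-stripped FBS, phenol red free; 24 h plating; cpd + 17beta-estradiol 21.5 h, 37 C/5% CO2; CellTiter-Fluor viability 30 min, then ONE-Glo luciferase 30 min RT.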
# [8] = molecular target: Peroxisome proliferator-activated receptor gamma (Homo sapiens) (UniProt P37231); assay: qHTS assay to identify small molecule agonists of the peroxisome proliferator-activated receptor gamma (PPARg) signaling pathway (AID 743094; active = well fitted activation curve with a large enough effect in the signal ratio in the repeat runs, not every such curve was filed as active; inconclusive = weak or mixed curves, or effect the other way; inactive = no such curve, though single readings can be large or run the other way; the % refers to the signal ratio; for activation: % is set by controls: 0 for no effect and ±100 for the full control effect); settings: HEK293H PPARg-UAS-bla, beta-lactamase FRET ratio, 17 h; activation: at 57 µM (top of the series) unless noted
# Sequence of UniProt P37231 (P37231 whole entry, looked up): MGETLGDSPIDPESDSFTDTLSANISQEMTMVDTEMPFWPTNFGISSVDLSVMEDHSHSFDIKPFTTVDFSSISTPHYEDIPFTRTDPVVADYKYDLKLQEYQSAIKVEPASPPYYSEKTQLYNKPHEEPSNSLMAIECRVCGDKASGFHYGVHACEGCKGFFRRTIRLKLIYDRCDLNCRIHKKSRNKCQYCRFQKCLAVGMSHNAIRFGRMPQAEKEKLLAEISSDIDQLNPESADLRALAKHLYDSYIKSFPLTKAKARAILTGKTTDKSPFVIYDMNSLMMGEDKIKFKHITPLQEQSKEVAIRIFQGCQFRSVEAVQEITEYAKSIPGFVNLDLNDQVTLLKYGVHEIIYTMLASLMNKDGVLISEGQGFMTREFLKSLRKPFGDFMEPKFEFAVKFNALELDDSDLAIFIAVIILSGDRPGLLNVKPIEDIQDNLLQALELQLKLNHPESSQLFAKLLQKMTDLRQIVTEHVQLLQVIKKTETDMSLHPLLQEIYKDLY
# Procedure, shortened: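 Reporter activation was scored by fluorescence of cleaved LiveBLAzer B/G substrate (1 h, room temperature) in PPARg-bla HEK293H cells previously treated 17 h at 37C with DMSO-dissolved compounds.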
# [9] = system: thyroid hormone receptor (rat, GH3 cells); assay: qHTS assay to identify small molecule agonists of the thyroid receptor (TR) signaling pathway (AID 743066; calls by dose curve; for activation: % is set by controls: 0 for no effect and ±100 for the full control effect); settings: GH3.TRE-Luc cells, TR agonist luciferase, 24 h; activation: at 83.9 µM (top of the series) unless noted
# [10] = molecular target: Estrogen receptor (Homo sapiens) (UniProt P03372); assay: qHTS assay to identify small molecule antagonists of the estrogen receptor alpha (ER-alpha) signaling pathway (AID 743069; active = well fitted curve in the direction sought with a large enough effect in the signal ratio in the repeat runs, not every such curve was filed as active; inconclusive = weak or mixed curves, or effect the other way; inactive = no such curve, though single readings can be large or run the other way; the % refers to the signal ratio); settings: HEK293 ER-alpha-UAS-bla, beta-lactamase ratio, antagonist mode; activity, negative = inhibition: at 69.4 µM (top of the series) unless noted
# Sequence of UniProt P03372 (P03372 whole entry, looked up): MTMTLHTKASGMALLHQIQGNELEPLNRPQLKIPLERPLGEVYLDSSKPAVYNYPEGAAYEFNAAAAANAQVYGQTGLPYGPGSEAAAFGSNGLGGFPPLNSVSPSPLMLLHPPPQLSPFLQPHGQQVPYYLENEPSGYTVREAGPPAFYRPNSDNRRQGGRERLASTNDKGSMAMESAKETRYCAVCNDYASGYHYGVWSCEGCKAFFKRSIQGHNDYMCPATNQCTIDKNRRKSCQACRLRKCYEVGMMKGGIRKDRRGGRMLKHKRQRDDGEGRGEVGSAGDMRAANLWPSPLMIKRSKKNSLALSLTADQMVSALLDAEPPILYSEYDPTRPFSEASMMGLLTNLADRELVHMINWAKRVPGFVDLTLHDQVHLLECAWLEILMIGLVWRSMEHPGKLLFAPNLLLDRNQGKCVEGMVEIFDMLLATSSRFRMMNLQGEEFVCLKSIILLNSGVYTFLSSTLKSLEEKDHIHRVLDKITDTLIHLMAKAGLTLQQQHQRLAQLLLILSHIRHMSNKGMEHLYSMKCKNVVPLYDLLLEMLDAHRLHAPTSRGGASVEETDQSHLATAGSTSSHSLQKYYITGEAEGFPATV
# Procedure, shortened: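 Screening used a UAS-driven beta-lactamase reporter integrated into HEK293 cells expressing ER-alpha, stimulated with 17beta-estradiol alongside test compounds over 18 hr at 37C; signal came from LiveBLAzer B/G FRET fluorescence.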
# [11] = qHTS assay to identify small molecule antagonists of the estrogen receptor alpha (ER-alpha) signaling pathway - cell viability counter screen (AID 743074; calls by dose curve; note: nearly all actives have a fitted effect of over 45% in size)
# [12] = molecular target: Estrogen receptor (Homo sapiens) (UniProt P03372); assay: qHTS assay to identify small molecule agonists of the estrogen receptor alpha (ER-alpha) signaling pathway using the BG1 cell line (AID 743079); settings: BG1Luc4E2 cells, ERE-luciferase agonist, 22 h; activation: at 70.3 µM (top of the series) unless noted; note: nearly all actives have a fitted effect of over 20% in size
# [13] = qHTS assay to identify small molecule antagonists of the estrogen receptor alpha (ER-alpha) signaling pathway using the BG1 cell line - cell viability counter screen (AID 743081); settings: BG1Luc4E2 viability, CellTiter-Fluor, 22 h; activity change, negative = cytotoxicity: at 70.3 µM (top of the series) unless noted;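 note: compound given together with 17beta-estradiol as the ER stimulus; nearly all actives have a fitted effect of over 45% in size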
# [14] = qHTS assay to identify aromatase inhibitors - cell viability counter screen (AID 743084); settings: MCF-7 aro ERE viability, CellTiter-Fluor, 24 h; activity change, negative = cytotoxicity: at 70.3 µM (top of the series) unless noted;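 note: cells stimulated with testosterone during compound exposure; nearly all actives have a fitted effect of over 55% in size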
# [15] = molecular target: Glucocorticoid receptor (Homo sapiens) (UniProt P04150); assay: qHTS assay to identify small molecule agonists of the glucocorticoid receptor (GR) signaling pathway (AID 720691; active = well fitted activation curve with a large enough effect in the signal ratio in the repeat runs, not every such curve was filed as active; inconclusive = weak or mixed curves, or effect the other way; inactive = no such curve, though single readings can be large or run the other way; the % refers to the signal ratio; for activation: % is set by controls: 0 for no effect and ±100 for the full control effect); settings: GR-bla HeLa, beta-lactamase reporter ratio, 18 h; activation: at 62.4 µM (top of the series) unless noted
# Procedure, shortened: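 Cells: GR-bla HeLa, endogenous GR with stably integrated GRE-beta-lactamase reporter. Treatment 18 h, 37 C, compounds delivered in DMSO. Detection via LiveBLAzer B/G FRET substrate, 2 h RT, fluorescence intensity.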
# [16] = qHTS assay to identify small molecule antagonists of the thyroid receptor (TR) signaling pathway - cell viability counter screen (AID 743064); settings: GH3.TRE-Luc viability, CellTiter-Fluor, 24 h; activity change, negative = cytotoxic: at 70.3 µM (top of the series) unless noted; note: nearly all actives have a fitted effect of over 50% in size
# Procedure, shortened: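 In-well cytotoxicity read by CellTiter-Fluor (30 min, 37 C) following 23.5 h exposure of GH3 cells bearing a TRE-luciferase sensor. Compounds were added alongside 1 nM (final) T3 to drive TR transactivation.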
# [17] = qHTS assay to identify small molecule antagonists of the androgen receptor (AR) signaling pathway - cell viability counter screen (AID 743033; note: nearly all actives have a fitted effect of over 45% in size); settings: AR-bla HEK293 viability, CellTiter-Glo luminescence, 16 h; activity change, negative = cytotoxicity: at 58.5 µM (top of the series) unless noted
# [18] = qHTS assay for identifying genotoxic compounds that show differential cytotoxicity against isogenic chicken DT40 cell lines with known DNA damage response pathways - wild type cell line (AID 743012); settings: DT40 wild type chicken cells viability, CellTiter-Glo, 40 h; activity change, negative = cytotoxicity: at 68.4 µM (top of the series) unless noted; note: nearly all actives have a fitted effect of over 60% in size
# Procedure, shortened: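 Luminescent ATP viability signal (CellTiter-Glo, 30 min RT) recorded after wild type DT40 cells were incubated with compounds for 40 h at 37 C/5% CO2.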
# [19] = qHTS assay for identifying genotoxic compounds that show differential cytotoxicity against isogenic chicken DT40 cell lines with known DNA damage response pathways - Rad54/Ku70 mutant cell line (AID 743015); settings: DT40 Rad54/Ku70 mutant viability, CellTiter-Glo, 40 h; activity change, negative = cytotoxicity: at 66.8 µM (top of the series) unless noted; note: nearly all actives have a fitted effect of over 60% in size
# Potency is the fitted concentration of half-maximal effect; tags give direction and shape of the fitted curve or compound fluorescence and quenching.
compound,measurement,setting,value
OCC(S)CS (stereo not given),Potency,[1],inconclusive: 33.5 µM [single point]
same,Potency,[2],inactive
same,Potency,[3],"inconclusive: 26.8 µM [cytotoxic, single point]"
same,Potency,[4],"inconclusive: 21.3 µM [rising, partial curve]"
same,Potency,[5],active: 18.8 µM
same,Potency,[6],"inconclusive: 31.2 µM [cytotoxic, partial curve, poor fit]"
same,Potency,[7],"inconclusive: 29.8 µM [rising, partial curve]"
same,Potency,[8],"inconclusive: 13.4 µM [activator, partial curve, poor fit]"
CCCCCCCCCCCCCC[n+]1ccc(C)cc1,Potency,[1],active: 23.7 µM
same,Potency,[2],active: 13.3 µM
same,Potency,[3],inconclusive: 26.8 µM [cytotoxic]
same,Potency,[4],active: 21.3 µM
same,Potency,[6],"inconclusive: 11.9 µM [cytotoxic, full curve]"
same,activation,[9],inconclusive: -9.82% [phenotype inactive]
same,Potency,[10],"inconclusive: 4.25 µM [rising, full curve]"
same,Potency,[11],"inconclusive: 2.68 µM [cytotoxic, full curve]"
same,Potency,[12],"inconclusive: 7.5 µM [inhibitor, partial curve]"
same,Potency,[7],"inconclusive: 11.9 µM [falling, full curve]"
same,Potency,[13],"inconclusive: 15 µM [cytotoxic, partial curve, poor fit]"
same,Potency,[14],"inconclusive: 23.7 µM [cytotoxic, partial curve]"
same,activation,[8],inconclusive: -18.3%
CCC(=O)O[C@H]1CC[C@H]2[C@@H]3CCc4cc(O)ccc4[C@H]3CC[C@]12C,Potency,[1],active: 33.5 µM
same,Potency,[2],active: 11.9 µM
same,Potency,[15],"inconclusive: 26.8 µM [cytotoxic, single point]"
same,Potency,[3],"inconclusive: 26.8 µM [cytotoxic, single point]"
same,Potency,[4],"inconclusive: 26.8 µM [cytotoxic, single point]"
same,Potency,[5],active: 21.1 µM
same,Potency,[16],"inconclusive: 33.5 µM [cytotoxic, single point]"
same,Potency,[9],inconclusive: 23.7 µM [inhibitor]
same,Potency,[8],inactive
CO[C@H]1C[C@@H]2CC[C@@H](C)[C@@](O)(O2)C(=O)C(=O)N2CCCC[C@H]2C(=O)O[C@H]([C@H](C)C[C@@H]2CC[C@@H](O)[C@H](OC)C2)CC(=O)[C@H](C)C=C(C)[C@@H](O)[C@@H](OC)C(=O)[C@H](C)C[C@H](C)/C=C/C=CC=C1C,Potency,[1],"inconclusive: 21.1 µM [falling, partial curve] and inconclusive: 23.7 µM [falling, partial curve]"
same,Potency,[2],active: 17.6 µM and active: 19.7 µM
same,Potency,[4],"inconclusive: 23.9 µM [cytotoxic, single point] and inconclusive: 21.3 µM [cytotoxic, single point]"
same,Potency,[17],"inconclusive: 0.0048 µM [cytotoxic, full curve, poor fit]"
same,Potency,[6],"inconclusive: 26.6 µM [cytotoxic, partial curve]"
same,Potency,[16],active: 15 µM and active: 9.44 µM
same,activation,[9],inconclusive: -8.68% [phenotype inactive] and inconclusive: -8.62% [phenotype inactive]
same,Potency,[10],"inconclusive: 23.9 µM [fluorescent, partial curve]"
same,Potency,[11],"inconclusive: 21.3 nM [cytotoxic, partial curve, poor fit] and active: 23.9 µM"
same,Potency,[12],"inconclusive: 5.96 µM [inhibitor, partial curve] and inconclusive: 8.41 µM [inhibitor, partial curve]"
same,Potency,[7],active: 3.8 nM and active: 7.5 nM
same,Potency,[13],active: 23.7 µM and active: 3.76 µM
CO[C@H]1C=CO[C@@]2(C)Oc3c(C)c(O)c4c(O)c(c(/C=N/N5CCN(C6CCCC6)CC5)c(O)c4c3C2=O)NC(=O)/C(C)=C\C=C[C@H](C)[C@H](O)[C@@H](C)[C@@H](O)[C@@H](C)[C@H](OC(C)=O)[C@@H]1C,Potency,[1],"inconclusive: 23.7 µM [cytotoxic, partial curve]"
same,Potency,[2],active: 1.19 µM
same,Potency,[15],inactive
same,Potency,[3],active: 21.3 µM
same,Potency,[4],"inconclusive: 23.9 µM [cytotoxic, single point]"
same,Potency,[18],active: 3.35 µM
same,Potency,[19],active: 4.22 µM
same,Potency,[6],active: 23.7 µM
same,Potency,[12],inconclusive: 33.5 µM [inhibitor]
same,Potency,[7],"inconclusive: 29.8 µM [falling, partial curve]"
same,Potency,[13],active: 26.6 µM
same,Potency,[14],active: 23.7 µM
same,Potency,[8],inconclusive: 9.52 µM [inhibitor]
